# Results: the BET-seq Pho4 binding data (Le et al. 2018)
# The list shows a part of the results. Values were computed here from the reads of four pooled replicates and scatter widely.
# Molecular target: T1, Pho4 (S. cerevisiae) (UniProt P07270)
# T1 sequence: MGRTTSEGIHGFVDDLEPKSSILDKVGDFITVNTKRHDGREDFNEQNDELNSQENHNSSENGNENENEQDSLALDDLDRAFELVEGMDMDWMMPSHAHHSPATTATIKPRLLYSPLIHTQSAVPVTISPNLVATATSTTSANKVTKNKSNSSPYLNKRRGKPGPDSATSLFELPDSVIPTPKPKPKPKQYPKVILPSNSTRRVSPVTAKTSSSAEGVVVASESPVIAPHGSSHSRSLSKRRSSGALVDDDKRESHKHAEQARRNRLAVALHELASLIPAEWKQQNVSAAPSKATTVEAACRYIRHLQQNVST
# Test: relative binding free energy (BET-seq); higher = weaker binding
# Settings: reference: library average
row,Sequence,relative binding free energy [kcal/mol]
1,AAATTCACGTGTGGAA,0.39
2,ATTGTCACGTGTTGTG,0.09
3,TATTCCACGTGGTGTT,0.07
4,GCTTTCACGTGTAGGG,0.21
5,TAACGCACGTGCGGGT,-0.08
6,TGGGTCACGTGTCTGA,0.04
7,TGACGCACGTGTAGAG,-0.06
8,ATCGGCACGTGTAGGA,0.06
9,TTTGTCACGTGATTGA,0.27
10,ATAGTCACGTGGTAAT,0.05
11,GATTACACGTGAGGCT,0.34
12,CTTGGCACGTGGGGAG,-0.22
13,TTATGCACGTGTGCAG,0.02
14,AGGGACACGTGTTTTA,0.05
15,GGTGTCACGTGTTCGT,0.04
16,AGGTTCACGTGTGTGG,0.18
17,AGGATCACGTGAGGGA,0.31
18,GGGCACACGTGATGTT,-0.02
19,TGGGTCACGTGGTGAG,0.09
20,TTTACCACGTGGCGTT,-0.16
21,GGGGGCACGTGGCAGC,-0.13
22,GGGTGCACGTGACGTT,0.17
23,TTATACACGTGGGGGT,-0.12

row,Sequence,relative binding free energy [kcal/mol]
1,ATTAACACGTGGGGAG,-0.15
2,TTGGGCACGTGCGACT,-0.01
3,GTGCTCACGTGTAATG,0.18
4,TGGTGCACGTGGTATA,-0.1
5,AAGGACACGTGTTTCG,0.14
6,GGAGACACGTGAGTGG,0.2
7,TTGGTCACGTGACTGG,0.18
8,GCAGTCACGTGGTTGG,-0.08
9,GGGGCCACGTGATCGG,0.07
10,TTTAACACGTGATGGA,0.13
11,GGGTGCACGTGATGTA,0.05
12,CGGCGCACGTGAGGGG,0.17
13,GGTGTCACGTGTCGCT,0.02
14,TCTAGCACGTGTAGTG,-0.04
15,TTGGTCACGTGATCAT,0.17
16,AAATGCACGTGAATGT,0.22
17,GAAAGCACGTGGTGTA,-0.19
18,GGAGACACGTGGGGCG,-0.12
19,AAGAGCACGTGGGGTC,-0.08
20,TTGGGCACGTGGCTAG,-0.23
21,TTGTGCACGTGTCGTT,-0.02
22,AGGGGCACGTGTGGTC,-0.09
23,AAGTGCACGTGTGCTG,-0.17

row,Sequence,relative binding free energy [kcal/mol]
1,GGCGTCACGTGAAGGG,0.36
2,ATAGGCACGTGGCGTT,-0.24
3,TGTATCACGTGCTCTG,0.15
4,TGTATCACGTGCAAAT,0.26
5,AGGAACACGTGCATGG,0.12
6,ATGTTCACGTGGGTTC,0.23
7,AATGCCACGTGCGTGG,-0.07
8,TTCTACACGTGTAGGG,0.01
9,GTGGCCACGTGGGGTC,-0.09
10,GGAGGCACGTGATGTT,-0.04
11,GTTTACACGTGCTATT,0.02
12,TTTGGCACGTGTTTCC,-0.1
13,GTCGTCACGTGGAGTG,0.19
14,GGTGACACGTGTGTTT,0.14
15,TTGCTCACGTGTGGCT,0.08
16,CATGGCACGTGAGTTA,0.23
17,TGTATCACGTGCAGGA,0.13
18,AAGCTCACGTGATGTA,0.38
19,TAGATCACGTGATGGC,0.25
20,TGTTACACGTGGTGTA,0.02
21,ATATACACGTGGTAAG,0.11
22,ATGGTCACGTGAACGT,0.32
23,TCTTTCACGTGGTTCT,0.11

row,Sequence,relative binding free energy [kcal/mol]
1,TGCGACACGTGTTTGT,0.13
2,AGTTGCACGTGGAATA,0.13
3,GGGTCCACGTGATGGT,0.11
4,TTCGTCACGTGAGGGT,0.29
5,GCAAGCACGTGATGGG,0.06
6,CGGGGCACGTGGGTCT,-0.28
7,GGCTCCACGTGGTGTT,0.01
8,GATTGCACGTGAAAGT,0.18
9,TCATTCACGTGTGGGT,0.22
10,CGTGTCACGTGTGGAC,0.21
11,TTTGACACGTGTACGT,0.03
12,CTAGGCACGTGTAAGT,0
13,TTGGCCACGTGTCGTG,-0.06
14,TTTGTCACGTGTATCT,-0.03
15,TTTCTCACGTGGTTCT,0.15
16,TATTACACGTGTTTAT,0.21
17,ACTTTCACGTGATGGT,0.26
18,GGTTCCACGTGTATTT,0.19
19,ACGAGCACGTGTGTGG,-0.04
20,GACAGCACGTGTGGAG,0.06
21,GAGGGCACGTGTAGTC,-0.03
22,TCTTACACGTGAGTTT,0.26
23,GGTGTCACGTGAATTT,0.34

row,Sequence,relative binding free energy [kcal/mol]
1,GTGTTCACGTGTGGGC,0.33
2,GATGGCACGTGTTTTT,-0.01
3,ATGGTCACGTGAATGG,0.28
4,CTGTTCACGTGTATAT,0.23
5,GTTTACACGTGGGAGT,0.04
6,TTAACCACGTGTGTGG,-0.11
7,AGTCGCACGTGAAGGT,0.31
8,TGGGACACGTGGTTCT,0.11
9,ACGGTCACGTGGTCTT,0.05
10,GTGGTCACGTGTCGCG,0.03
11,ATCATCACGTGGTGTT,0.13
12,TATTCCACGTGTCGTG,0.09
13,TAGAGCACGTGCGCGG,-0.25
14,GGACTCACGTGGGGTA,-0.03
15,TACGACACGTGGTAGG,-0.16
16,GCTGTCACGTGGCGTT,0.06
17,ATAGGCACGTGGAGTA,-0.18
18,CTTGTCACGTGGGGAT,-0.02
19,GTGGGCACGTGATTAT,-0.01
20,TCTTGCACGTGTTTTT,-0.03
21,TTGTCCACGTGGTCAG,0
22,GTCGTCACGTGCAAGT,0.25
23,TAGGGCACGTGGGTCA,-0.23
